{"source": "PubChem BioAssay AID686979", "about": "(National Center for Advancing Translational Sciences (NCATS), 2013)", "note": "Out of some 420,000 compounds screened, about 50,000 (12%) were called active. The inconclusive results got no clear call from the source; some entries with a clear call stand among them for comparison. Calls follow the shape of the dose curve; as a rule, active = well fitted inhibition curve with a large enough effect; inconclusive = small, poorly fitted or top-dose-only effect; inactive = flat fitted curve, though single readings scatter. No potency is given beside an inconclusive call; the fits are too rough. % is scaled to controls: 0 for no effect and ±100 for the full control effect; potency is read from the fitted curve at half-maximal effect; tags tell the direction and shape of the fitted curve."}
{"assay": "qHTS for Inhibitors of human tyrosyl-DNA phosphodiesterase 1 (TDP1): qHTS in cells in presence of CPT; also: nearly all actives have a fitted effect of over 55% in size", "settings": "chicken DT40 Tdp1-/-;hTDP1 cells + 20 nM CPT, ATP luminescence, 48 h; activity change, negative = growth inhibition: at 46.2 µM (top of the series) unless noted", "method_in_brief": "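Chicken DT40 Tdp1-/- cells stably complemented with human TDP1 were seeded at 400 cells/well in medium containing 20 nM camptothecin, exposed to pin-transferred compounds, and grown at 37 °C for at least 48 hr. Viability was read as ATP luminescence.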"}
{"compound": "c1ccc(C(Nc2cccnc2)c2ccccc2)cc1", "Potency": "inconclusive [inhibitor, single point]"}
{"compound": "COc1ccccc1CNc1cc(C)ccc1C", "activity change, negative = growth inhibition": "inactive: -14.9%"}
{"compound": "COc1ccc(Nc2cc(C(=O)NCc3ccccc3)c3ccccc3n2)cc1", "Potency": "inconclusive [inhibitor, partial curve]"}
{"compound": "O=C(NCC(=O)N1CCN(C(=O)c2ccccc2)CC1)c1ccc(Cl)cc1Cl", "activity change, negative = growth inhibition": "inactive: -2.39%"}
{"compound": "COc1ccc(C)cc1S(=O)(=O)n1c([N+](=O)[O-])cnc1C", "activity change, negative = growth inhibition": "inactive: -6.76%"}
{"compound": "CC(C)CNC(=O)c1cccc(NC(=O)CCc2ccccc2)c1", "Potency": "inconclusive [inhibitor, single point]"}
{"compound": "CN(C)Cc1cc(C(C)(C)C)cc(C(C)(C)C)c1O", "Potency": "inconclusive [inhibitor, single point]"}
{"compound": "CCOC(=O)c1sc(Nc2nc(OC)cc(OC)n2)nc1C", "Potency": "inconclusive [inhibitor, single point]"}
{"compound": "CC(c1nnnn1C(C)(C)C)N(Cc1cccnc1)Cc1ccccc1Cl", "note": "(stereo not drawn)", "Potency": "inconclusive [inhibitor, single point]"}
{"compound": "Cc1csc(N/N=C/c2ccc([N+](=O)[O-])cc2)n1", "activity change, negative = growth inhibition": "inactive: -0.0553%"}
{"compound": "C=CCn1c(SCC(=O)NCC2CCCO2)nc2scc(-c3ccc(OC)cc3)c2c1=O", "note": "(stereo not drawn)", "Potency": "inconclusive [inhibitor, single point]"}
{"compound": "CCC1CN(C(=O)N2CCC(C(=O)NCc3ccc(C)o3)CC2)c2ccccc2O1", "note": "(stereo not drawn)", "Potency": "inconclusive [inhibitor, partial curve]", "activity change, negative = growth inhibition": "inconclusive: -34.4% [inhibitor]"}
{"compound": "O=C(Cn1c(=O)n(Cc2ccc(F)cc2)c(=O)c2sc3ccccc3c21)NCc1ccccc1", "Potency": "inconclusive [inhibitor, partial curve]"}
{"compound": "Cc1cc(C)c(NC(=O)CSCc2nc3sc(C)c(C)c3c(=O)[nH]2)c(Cl)c1", "Potency": "inconclusive [inhibitor, single point]"}
{"compound": "COc1ccc(CCN(C)c2ccc(S(=O)(=O)N3CCCC3)cn2)cc1OC", "Potency": "inconclusive [inhibitor, single point]"}
{"compound": "O=C(CCC(=O)NC1CC1)Nc1nnc(C2CCCCC2)s1", "activity change, negative = growth inhibition": "inactive: -2.13%"}
{"compound": "COc1cccc(-c2nn(-c3ccccc3)cc2CN(C)C(C)c2ccon2)c1", "note": "(stereo not drawn)", "Potency": "inconclusive [inhibitor, single point]"}
{"compound": "Cc1cccc(Nc2ccc(NCc3ccccc3)nn2)c1", "Potency": "inconclusive [inhibitor, single point]"}
{"compound": "O=C(NC1CCCc2ccccc21)c1cnn2c1NC(=C1CC1)C=C2C(F)F", "note": "(stereo not drawn)", "Potency": "active: 11.2 µM"}
{"compound": "COc1ccc(S(=O)(=O)N2CCc3ccccc32)cc1C(=O)NCC(c1ccco1)N1CCCC1", "note": "(stereo not drawn)", "activity change, negative = growth inhibition": "inactive: -24.9%"}
{"compound": "Cc1ccc(C)c(NC(=O)C2C3CCCC2C3c2ccccc2)c1", "note": "(stereo not drawn)", "Potency": "inconclusive [inhibitor, single point]"}
{"compound": "O=C(NNC1=Nc2ccccc2SC1)c1cccc([N+](=O)[O-])c1", "Potency": "active: 16.4 µM"}
{"compound": "CSc1ccc(S(=O)(=O)N2CCC(C(=O)NCCc3ccccc3)CC2)cc1", "Potency": "inconclusive [inhibitor, single point]"}
{"compound": "COc1cc(NC(=O)/C=C/c2ccccc2)c(C(=O)O)cc1OC", "Potency": "inconclusive [inhibitor, single point]"}
{"compound": "CCc1ccc2[nH]c(=O)c(CN(Cc3ccccc3)Cc3nnnn3Cc3ccccc3)cc2c1", "Potency": "inconclusive [inhibitor, partial curve, poor fit]"}
{"compound": "COc1cc(OC)nc(S(C)(=O)=O)n1", "Potency": "inconclusive [inhibitor, single point]"}
{"compound": "NC(=S)N/N=C/c1ccc(-c2cc(Cl)cc(Cl)c2)o1", "Potency": "active: 5.8 µM"}
{"compound": "Cc1onc(-c2ccccc2)c1-c1nnc(CN2CCN(S(=O)(=O)c3ccccc3)CC2)o1", "Potency": "active: 14.6 µM"}
{"compound": "Cc1cc2nnc(SCC(=O)N3CCN(c4ccccc4)CC3)n2c(N)n1", "activity change, negative = growth inhibition": "inactive: -13.6%"}
{"compound": "Cc1cc2ncn(S(=O)(=O)c3ccc(S(=O)(=O)N4CCOCC4)cc3)c2cc1C", "Potency": "inconclusive [inhibitor, partial curve]"}
{"compound": "Cc1ccc(C)c(Cn2c(C(C)NC(=O)c3ccccc3)nc3ccccc32)c1", "note": "(stereo not drawn)", "Potency": "inconclusive [inhibitor, single point]"}
{"compound": "CCOC(=O)c1[nH]c2ccccc2c1NC(=S)Nc1cccc(C)c1C", "Potency": "inconclusive [inhibitor, single point]"}
{"compound": "CC(=O)CSc1nnc(NC(=O)CCc2ccccc2)s1", "Potency": "inconclusive [inhibitor, single point]"}
{"compound": "O=C(NCCCCO)c1c(-c2ccccc2)oc2c1C(OCCCCCO)CCC2", "note": "(stereo not drawn)", "activity change, negative = growth inhibition": "inactive: -16.1%"}
{"compound": "O=C(NC(=S)Nc1ccc(O)cc1)C1CCCC1", "Potency": "inconclusive [inhibitor, single point]"}
{"compound": "COc1ccc(NC(=O)C(CC(=O)O)C(C)c2ccccc2)cc1", "note": "(stereo not drawn)", "Potency": "active: 16.4 µM"}
{"compound": "Cc1ccc(NC(=O)C2CCC(CNS(=O)(=O)c3cccc4nsnc34)CC2)c(C)c1", "note": "(stereo not drawn)", "activity change, negative = growth inhibition": "inconclusive: -30.7% [inhibitor]"}
{"compound": "Cc1ccccc1NS(=O)(=O)c1ccc(C(=O)N2CCN(c3ccccc3O)CC2)cc1", "Potency": "active: 11.6 µM"}
{"compound": "Cc1ccc2nc(N(CCN(C)C)C(=O)/C=C/c3cccs3)sc2c1", "Potency": "inconclusive [inhibitor, single point]"}
{"compound": "O=C(Nc1cccc(Cl)c1)Nc1nnc(CSCCOc2ccc(Cl)cc2)s1", "Potency": "active: 3.26 µM"}
{"compound": "O=C(CSC1=Nc2ccccc2C2=NC(Cc3ccccc3)C(=O)N12)Nc1ccccc1", "note": "(stereo not drawn)", "Potency": "inconclusive [inhibitor, single point]"}
{"compound": "N#C/C(=C\\c1ccc(F)cc1)C(=O)Nc1ccccn1", "activity change, negative = growth inhibition": "inactive: 4.52%"}
{"compound": "O=C(c1cccc(F)c1)N1CCCN(C(=O)c2cccc(F)c2)CC1", "activity change, negative = growth inhibition": "inactive: 4.15%"}
{"compound": "COc1ccc(NS(=O)(=O)c2ccc3c(c2)N(C(C)=O)CCS3)cc1", "Potency": "inconclusive [inhibitor, single point]"}
{"compound": "CCN1CCN(c2oc(-c3ccccc3C)nc2S(=O)(=O)c2ccccc2)CC1", "Potency": "inconclusive [inhibitor, partial curve, poor fit]"}
{"compound": "COc1ccc(CCNC(=O)c2cc(-c3ccco3)nc3ccccc23)cc1", "Potency": "inconclusive [inhibitor, single point]"}
{"compound": "COC(=O)/C=C1/S/C(=N/N=C/c2ccco2)NC1=O", "activity change, negative = growth inhibition": "inactive: 2.87%"}
{"compound": "COc1cccc(OCc2nc3ccccc3n2C)c1", "Potency": "inconclusive [inhibitor, single point]"}
{"compound": "CCc1cccc(CC)c1NC(=O)C1CN(S(=O)(=O)c2ccccc2)CCN1S(=O)(=O)c1ccccc1", "note": "(stereo not drawn)", "Potency": "inconclusive [inhibitor, single point]"}
{"compound": "CCCNC(=O)OCc1cccnc1Sc1ccc(C)cc1", "Potency": "inconclusive [inhibitor, single point]"}
{"compound": "CCOc1ccc(C2=Nn3c(nnc3-c3cccnc3)SC2)cc1", "activity change, negative = growth inhibition": "inactive: 4.42%"}
{"compound": "O=C(Nc1ccccc1)Nc1nnc(CSCc2ccccc2Cl)s1", "Potency": "active: 20.6 µM"}
{"compound": "O=C1c2cccnc2C(=O)N1Cc1ccc(S(=O)(=O)N2CCOc3ccc(Cl)cc32)cc1", "activity change, negative = growth inhibition": "inactive: -10%"}
{"compound": "C=CC[C@H]1CC(C)=C[C@H](CC=C)N1", "activity change, negative = growth inhibition": "inactive: 13.2%"}
{"compound": "O=C(COc1ncnc2c1cnn2-c1ccccc1)Nc1ccc(S(=O)(=O)N2CCCCC2)cc1", "Potency": "active: 16.4 µM"}
{"compound": "O=C(NNc1cc(N2CCOCC2)nc(N2CCOCC2)n1)c1ccc(Cl)c(Cl)c1", "activity change, negative = growth inhibition": "inconclusive: -32.8% [inhibitor]"}
{"compound": "CN(C)C(=O)c1ccccc1Sc1ccc(Cl)cc1Cl", "Potency": "inconclusive [inhibitor, partial curve]"}
{"compound": "O=C(Nc1cccc2c1CCCC2)C1CCN(C(=O)NC2CCCCC2)CC1", "Potency": "inconclusive [inhibitor, single point]"}
{"compound": "CN1CCN(C(=S)c2cn(Cc3cccc(F)c3)c3ccccc23)CC1", "Potency": "inconclusive [inhibitor, single point]"}
{"compound": "Cc1nc(N2CCOCC2)c2c(C(=O)N3CCN(c4ccc(Cl)cc4)CC3)c(C)oc2n1", "activity change, negative = growth inhibition": "inactive: -28.6%"}
{"compound": "COC(=O)c1ccc(NC(=O)c2ccco2)cc1", "Potency": "inconclusive [inhibitor, partial curve, poor fit]"}
{"compound": "COc1ccc(C2Nc3ccccc3C(=O)N2c2cccc3ccccc23)cc1COc1c(C)cccc1C", "note": "(stereo not drawn)", "Potency": "active: 3.16 µM"}
{"compound": "COc1ccc2c(c1)-c1nc(NC(=O)c3cccs3)sc1CC2", "Potency": "inconclusive [inhibitor, single point]"}
{"compound": "CCCCCC(=O)N1C[C@@H](n2cc(C3CC3)nn2)[C@H](O)C[C@@H]1c1ccccc1", "Potency": "inconclusive [inhibitor, single point]"}
{"compound": "COc1ccc(Cn2c(CCC(=O)Nc3cccc(Cl)c3)nc3cccnc32)cc1", "activity change, negative = growth inhibition": "inactive: -13.1%"}
{"compound": "COc1ccc(-c2nc(N)ncc2-c2ccc(Cl)cc2)c(O)c1", "Potency": "inconclusive [inhibitor, single point]"}
{"compound": "COc1ccc(CNC(=O)c2cccc3c2C(=O)N(CC2CCCO2)C3)cc1", "note": "(stereo not drawn)", "activity change, negative = growth inhibition": "inactive: -15.8%"}
{"compound": "COc1ccc(-c2ccc(NS(=O)(=O)c3ccccc3Cl)cc2)nn1", "Potency": "active: 20.6 µM"}
{"compound": "CCCn1c(N)c(N(CCOC)C(=O)c2ccccc2)c(=O)[nH]c1=O", "activity change, negative = growth inhibition": "inactive: -24.4%"}
{"compound": "C/C(=N\\NC(=O)C1CC1c1ccccc1)c1cccc([N+](=O)[O-])c1", "note": "(stereo not drawn)", "Potency": "inconclusive [inhibitor, single point]"}
{"compound": "N#Cc1ccc(C(=O)Nc2ccc3ccccc3c2)cc1", "Potency": "inconclusive [inhibitor, single point]"}
{"compound": "C=CCNc1nc(Cl)nc(Nc2cc(Cl)ccc2OC)n1", "Potency": "inconclusive [inhibitor, single point]"}
